Measured values as given in PubChem BioAssay AID485294 (National Center for Advancing Translational Sciences (NCATS), 2010).
Screen size: about 370,000 compounds; about 150 (0.041%) were called active. The shares of active, inactive and inconclusive entries below differ from those in the screen. Calls follow the shape of the dose curve; as a rule, active = well fitted inhibition curve with a large enough effect; inconclusive = small, poorly fitted or top-dose-only effect; inactive = flat fitted curve, though single readings scatter. No potency is given beside an inconclusive call; the fits are too rough.
Also: nearly all actives have a fitted effect of over 25% in size.
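For activity change, negative = inhibition in this document: 0% = no-compound wells and -100% = no-enzyme wells.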
Potency is read from the fitted curve at half-maximal effect; tags tell the direction and shape of the fitted curve.

What follows are compounds tested against Beta-lactamase (Escherichia coli (strain K12)) (UniProt P00811) (assay: qHTS Inhibitors of AmpC Beta-Lactamase (assay with detergent)). Conditions: AmpC hydrolysis of nitrocefin, absorbance 480 nm, 0.01% Triton; activity change, negative = inhibition: at 114 µM (top of the series).
UniProt P00811, sequence (P00811 whole entry, looked up): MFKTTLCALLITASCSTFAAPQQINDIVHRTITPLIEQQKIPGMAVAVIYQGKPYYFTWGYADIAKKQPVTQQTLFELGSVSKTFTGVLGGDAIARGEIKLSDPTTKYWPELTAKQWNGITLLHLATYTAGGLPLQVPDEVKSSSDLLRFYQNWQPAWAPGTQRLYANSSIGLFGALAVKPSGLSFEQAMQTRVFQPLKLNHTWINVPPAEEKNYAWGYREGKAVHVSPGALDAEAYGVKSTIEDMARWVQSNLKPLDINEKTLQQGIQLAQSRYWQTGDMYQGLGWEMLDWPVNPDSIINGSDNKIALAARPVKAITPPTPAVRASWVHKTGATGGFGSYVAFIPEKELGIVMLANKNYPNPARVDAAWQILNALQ
How it was run: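 AmpC (5.3 nM in the dispensed reagent) in 20 mM phosphate pH 7.0 with 0.01% (detergent screen) or 0.0001% Triton X-100 was preincubated with compounds for 15 min at room temperature. Nitrocefin was then added from an 800 uM solution, and hydrolysis was followed at 480 nm.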
`COc1ccccc1C(=O)Nc1ccc(C(=O)/C=C/c2cccs2)cc1` was tested, and the Potency was inconclusive [inhibitor, full curve, poor fit]. In the case of `O=C(CN1C(=O)COc2ccccc21)NCCN1CCC(Cc2ccccc2)CC1`, the “activity change, negative = inhibition” value is reported as inactive: 1.02%. With `CC(=C\c1ccccc1)/C=C1/SC(=S)N(C(C(=O)O)C(C)C)C1=O` (stereo not drawn) the Potency was inconclusive [inhibitor, full curve, poor fit]. With `O=C(NCC1CCCO1)c1sc2cc(Cl)ccc2c1Cl` (stereo not drawn) the Potency was inconclusive [inhibitor, full curve, poor fit]. With `CC1CC(=O)N(CC(=O)Nc2ccc(OC(F)(F)F)cc2)c2ccccc2S1` (stereo not drawn) the “activity change, negative = inhibition” value was inactive: 12.1%. With `N#Cc1c(NC(=O)c2ccc(Cn3cc(Br)cn3)o2)sc2c1CCCCC2` the Potency was inconclusive [inhibitor, full curve, poor fit]. `CCOC(=O)NC1(Nc2ccc(Cl)cn2)Oc2ccccc2O1` was tested, and the Potency was inconclusive [inhibitor, full curve, poor fit]. `CC(=O)NCCC(=O)Nc1cc(S(=O)(=O)N2CCOCC2)ccc1Oc1ccc(F)cc1` was tested, and the Potency was inconclusive [inhibitor, full curve, poor fit]. In the case of `O=C(Nc1ccc(Cl)cc1)c1ccc(OCC2CCCO2)cc1` (stereo not drawn), the “activity change, negative = inhibition” value is reported as inactive: 3.28%. For `CCCCC12CNCC(C)(CNC1)C2=O`, the Potency was inconclusive [inhibitor, partial curve, poor fit]. `O=C(CCCn1c(=O)[nH]c2ccsc2c1=O)NC1CCCCC1` was tested, and the Potency was inconclusive [inhibitor, partial curve, poor fit]. With `CC(=S)/C=C1\Sc2ccccc2N1C` the Potency was inconclusive [inhibitor, single point]. For `CN(C(=O)c1cccnc1)c1nnc(-c2cccnc2)s1`, the “activity change, negative = inhibition” value was inactive: -13.7%. `CCN(CC(=O)NC(=O)NCc1ccco1)Cc1nc2ccccc2c(=O)[nH]1` was tested, and the Potency was inconclusive [inhibitor, full curve, poor fit]. In the case of `O=C1c2cccc3cccc(c23)C(=O)N1OS(=O)(=O)c1ccc(Br)cc1`, the Potency is reported as inconclusive [inhibitor, partial curve, poor fit]. With `COc1ccc(OC)c(-c2csc(NC(=O)Cc3ccc(OC)c(OC)c3)n2)c1` the “activity change, negative = inhibition” value was inactive: -0.247%. `CC(C)CCN1C(=O)c2ccccc2CC1(C)C(=O)NC1CCCCC1` (stereo not drawn) was tested, and the “activity change, negative = inhibition” value was inactive: 13.6%. In the case of `Cc1ccc(-c2csc(NC(=O)c3ccc4c(=O)n5c(nc4c3)CCCCC5)n2)cc1`, the “activity change, negative = inhibition” value is reported as inactive: -5.07%. With `COc1ccc(C(=O)N2CCN(c3ccc([N+](=O)[O-])c(-n4nc(C)cc4C)c3)CC2)cc1` the Potency was inconclusive [inhibitor, full curve, poor fit]. In the case of `CC(CCc1ccccc1)NC(=O)COc1ccc(S(=O)(=O)N2CCOCC2)cc1[N+](=O)[O-]` (stereo not drawn), the Potency is reported as inconclusive [inhibitor, full curve]. With `Cc1cccc(C)c1N1C(=O)C2ON(c3ccccc3)C(c3ccncc3)C2C1=O` (stereo not drawn) the “activity change, negative = inhibition” value was inactive: 0.167%. For `Cc1ccc(O)c(-c2cc(C(=O)Nc3ccc(S(=O)(=O)Nc4nccc(C)n4)cc3)[nH]n2)c1`, the Potency was inconclusive [inhibitor, partial curve]. For `O=C(CN1CCN(C2CCCCC2)C(=O)C1=O)Nc1ccc(Cl)cc1`, the “activity change, negative = inhibition” value was inactive: 17.7%. `CN(C)C(CNC(=O)C1CCN(C(=O)/C=C/c2ccccc2)CC1)c1ccccc1` (stereo not drawn) was tested, and the “activity change, negative = inhibition” value was inactive: -5.82%. With `Cc1ccc(NC(=O)C(c2ccccc2)N(C)C)cc1Cl` (stereo not drawn) the Potency was inconclusive [inhibitor, single point]. In the case of `CCS(=O)(=O)c1nc(NC(C)=O)n[nH]1`, the Potency is reported as inconclusive [inhibitor, full curve, poor fit]. For `O=C(COc1ccccc1)N1CCN(C(=O)c2ccccc2F)CC1`, the Potency was inconclusive [inhibitor, full curve, poor fit]. `COc1ccc(C(=O)NC(C)c2ccccc2)cc1Br` (stereo not drawn) was tested, and the Potency was inconclusive [inhibitor, full curve, poor fit]. For `CCCC(C)NC(=O)CSc1nc2ccc(C)cc2[nH]1` (stereo not drawn), the Potency was inconclusive [inhibitor, full curve, poor fit]. In the case of `Cc1c(OCc2ccccc2)c(=O)ccn1Cc1ccccc1`, the Potency is reported as inconclusive [inhibitor, full curve, poor fit]. With `Cc1cccc(C)c1NC(=O)Cn1c(=O)cc(C)c2c(C)nn(-c3cccc(Cl)c3C)c21` the “activity change, negative = inhibition” value was inactive: 22.2%. For `CCN1CCCC1CNC(=O)c1ccc2c(c1)NC(=O)/C(=C\c1ccc(OC)c(OC)c1)S2` (stereo not drawn), the “activity change, negative = inhibition” value was inactive: 2.53%. With `Cc1ccc2c(=O)cc(C(=O)NCc3ccccc3)oc2c1C` the Potency was inconclusive [inhibitor, single point]. With `CC(=O)c1cc2c(cc1NC(=O)CN1CCOCC1)OCO2` the Potency was inconclusive [inhibitor, single point]. For `CCc1nnc(N/N=C/c2cc(C)c(C)cc2C)n1N`, the Potency was inconclusive [inhibitor, full curve, poor fit]. `COc1ccc2cnn(CCOc3ccccc3)c(=O)c2c1OC` was tested, and the Potency was inconclusive [inhibitor, full curve]. With `O=C(COC(=O)/C=C/c1ccc(S(=O)(=O)N2CCOCC2)cc1)NCc1ccc(F)cc1` the Potency was inconclusive [inhibitor, full curve, poor fit]. `CCN(CC)S(=O)(=O)c1cccc(-c2nnc(C(=O)c3ccc(C(F)(F)F)cc3)o2)c1` was tested, and the Potency was inconclusive [inhibitor, full curve, poor fit]. In the case of `COc1ccc2oc(=N)c(C(=O)Nc3cccc(C)c3C)cc2c1`, the “activity change, negative = inhibition” value is reported as inactive: -20.8%. In the case of `O=C(OCC(=O)N1CCC(Cc2ccccc2)CC1)c1ccccc1NCCO`, the Potency is reported as inconclusive [inhibitor, partial curve, poor fit]. For `COc1cc(OC)c(NC(=O)Cn2cnc3c(nc4n3CCCCC4)c2=O)cc1Cl`, the “activity change, negative = inhibition” value was inactive: 16.5%. `CCCC1=Nc2cc(C(=O)NCCCOCC)ccc2Sc2ccccc21` was tested, and the Potency was inconclusive [inhibitor, single point]. For `Cc1ccc(C)c(S(=O)(=O)N2CCCC2CNC(=O)C(=O)NCc2ccccc2)c1` (stereo not drawn), the Potency was inconclusive [inhibitor, full curve, poor fit].
